Measurements published in PubChem BioAssay AID686979 (National Center for Advancing Translational Sciences (NCATS), 2013).
The whole screen tested about 420,000 compounds, of which about 50,000 (12%) were called active. The shares of active, inactive and inconclusive entries below differ from those in the screen. Calls follow the shape of the dose curve; as a rule, active = well fitted inhibition curve with a large enough effect; inconclusive = small, poorly fitted or top-dose-only effect; inactive = flat fitted curve, though single readings scatter. Potencies of inconclusive entries are left out as doubtful fits.

assay: qHTS for Inhibitors of human tyrosyl-DNA phosphodiesterase 1 (TDP1): qHTS in cells in presence of CPT; details: chicken DT40 Tdp1-/-;hTDP1 cells + 20 nM CPT, ATP luminescence, 48 h; activity change, negative = growth inhibition: at 46.2 µM (top of the series); also: nearly all actives have a fitted effect of over 55% in size
Method in brief: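 Chicken DT40 Tdp1-/- cells complemented with human TDP1, 400 cells/well, exposed to compounds plus 20 nM camptothecin for at least 48 h at 37 C; viability read as ATP content by CellTiter-Glo luminescence.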
% is scaled to controls: 0 for no effect and ±100 for the full control effect; potency is read from the fitted curve at half-maximal effect; tags tell the direction and shape of the fitted curve.

Row | Structure (SMILES) | Potency | activity change, negative = growth inhibition
1 | O=C1C(N2CCOCC2)=Cc2cccc3cccc1c23 | inconclusive [inhibitor, single point] | 
2 | O=S(=O)(NCCCc1ccccc1)c1ccc(Cl)cc1 | inconclusive [inhibitor, single point] | 
3 | COc1ccccc1NC(=O)COc1ccc(C(F)(F)F)cc1[N+](=O)[O-] | inconclusive [inhibitor, single point] | 
4 | O=C(Nc1ccncc1)C1CCN(S(=O)(=O)c2ccc(Cl)c(C(F)(F)F)c2)CC1 | active: 16.4 µM | 
5 | CCC1CCC(N2CCN(c3cccc(OC)c3)CC2)CC1 (centres undefined) | inactive | 
6 | CC(=O)NC1CCCC1C#N (centres undefined) | inactive | 
7 | CCOc1ccc(C(c2nnnn2C(C)(C)C)N2CCN(C(=O)c3ccco3)CC2)cc1 (centres undefined) | inactive | 
8 | Cc1ccc(S(=O)(=O)Cn2nnnc2C(C)N2CCN(C(=O)c3ccco3)CC2)cc1 (centres undefined) | inactive | 
9 | O=C(c1ccc([N+](=O)[O-])c(CS(=O)(=O)c2ccc(Cl)cc2)c1)N1CCCCC1 | inactive | 
10 | CC[C@]12c3[nH]c4cc(-c5ccco5)ccc4c3CCN1C(=O)[C@@H](CC(=O)NCCCOC)C[C@@H]2C(=O)N1CCN(C(=O)C2CC2)CC1 | inconclusive [inhibitor, single point] | 
11 | Oc1ccc(Oc2ccc3c(C(F)(F)F)cc(C(F)(F)F)nc3n2)cc1 | active: 14.6 µM | 
12 | Cc1cccc(N2CCN(C(=O)CCNS(=O)(=O)c3cccs3)CC2C)c1 (centres undefined) | inconclusive [inhibitor, single point] | 
13 | COc1ccc(NC(=O)CN2C(=O)CSc3ccc(S(=O)(=O)N4CCCC4)cc32)cc1OC | inconclusive [inhibitor, single point] | 
14 | CCN(CCCNC(=O)c1ccc(N2CCCC2=O)cc1)c1cccc(C)c1 | inconclusive [inhibitor, single point] | 
15 | CCn1c(SC)nc2cc(S(=O)(=O)N3CCCCC3)ccc21 | active: 1.64 µM | 
16 | CC(=O)Nc1cccc(OCCCNS(=O)(=O)c2ccc(C#N)cc2)c1 | inconclusive [inhibitor, partial curve] | 
17 | CCCCNC(=O)c1cnn2c(C)c(Cc3c(F)cccc3Cl)c(C)nc12 | active: 7.31 µM | 
18 | COCCNC(=S)N/N=C(\C)c1ccc(O)cc1 | inconclusive [inhibitor, single point] | 
19 | COc1cccc(NC(=O)c2cc3c(=O)n(C)c4ccccc4c3n2C)c1 | inconclusive [inhibitor, partial curve] | 
20 | S=C(NCCN1CCOCC1)N/N=C/c1ccccc1 | inactive | 
21 | COc1ccc(C(C(=O)NC2CCCCC2)N(C(=O)Cc2c[nH]c3ccccc23)c2ccc(NC(C)=O)cc2)cc1OC (centres undefined) |  | inconclusive: -31.7% [inhibitor]
22 | Cn1cnc2nc(Cl)nc(Cl)c21 | active: 1.64 µM | 

Row | Structure (SMILES) | Potency | activity change, negative = growth inhibition
23 | O=C(Nc1cccc(C(F)(F)F)c1)Nc1ccc(N2CCCC2)c(S(=O)(=O)Nc2ccccc2Cl)c1 | active: 3.26 µM | 
24 | O=C1NCCCc2c1oc1cc(Br)c(O)c(Br)c21 | active: 16.4 µM | 
25 | COc1ccc(Cl)cc1NC(=O)CSC1=NN2CCCC(=O)N=C2S1 | inconclusive [inhibitor, single point] | 
26 | CCOC(=O)c1ccccc1NC(=O)CSc1nnc(COc2ccccc2)n1CC | inconclusive [inhibitor, single point] | 
27 | O=C(c1c(F)cccc1F)N(Cc1cccs1)C1CCCC1 | active: 11.6 µM | 
28 | O=C(CNc1cccc(S(=O)(=O)N2CCCC2)c1)Nc1ccc(F)c(F)c1 | inconclusive [inhibitor, single point] | 
29 | COc1ccc(C(C(=O)NC(C)(C)C)n2c(=O)c(-c3ccccc3)nc3ccccc32)cc1 (centres undefined) | inconclusive [inhibitor, single point] | 
30 | CCn1cc(C(=O)NCCC(C)C)c(=O)c2cc(F)c(N3CCN(C(=O)c4ccco4)CC3)cc21 | active: 16.4 µM | 
31 | COC(=O)c1c(NC(=S)NN2CCOCC2)sc2c1CCCC2 | inconclusive [inhibitor, single point] | 
32 | CCc1c(C)nc2cc(-c3ccc(OC)c(OC)c3)nn2c1N1CCCC1 | inconclusive [inhibitor, single point] | 
33 | Cc1ccc2nc(-c3ccc(NC(=O)c4cccnc4)cc3)oc2c1 | inconclusive [inhibitor, single point] | 
34 | CCOC(=O)C1=C(c2ccccc2)NC(=O)NC1c1cc(OCC)c(O)c([N+](=O)[O-])c1 (centres undefined) | inconclusive [inhibitor, single point] | 
35 | CC(=O)C1=C(C)N2CCN=C2S1 | inactive | 
36 | Cc1onc(-c2ccccc2Cl)c1C(=O)N(Cc1nc(-c2ccccc2)no1)C1CCCCC1 | inconclusive [inhibitor, single point] | 
37 | CC1Cc2nc(SCC(=O)N3CCc4ccccc43)n(C)c(=O)c2S1 (centres undefined) | inconclusive [inhibitor, single point] | 
38 | CCN(C(=O)CSc1cc(-c2ccccc2)c2ccc(OC)cc2n1)C1CCS(=O)(=O)C1 (centres undefined) | inconclusive [inhibitor, single point] | 
39 | Cc1ccc(/C=N/N(C)C2=NS(=O)(=O)c3ccccc32)cc1 | inconclusive [inhibitor, full curve, poor fit] | 
40 | CCOc1ccc(-n2ccnc(SCC(=O)Nc3ccc(CC)cc3)c2=O)cc1 | inconclusive [inhibitor, single point] | 
41 | Cc1ccc(C)c(N2CCN(S(=O)(=O)c3cc4c(cc3C)NC(=O)CO4)CC2)c1 | inconclusive [inhibitor, single point] | 
42 | CCCCn1c(SCC(=O)N2c3ccccc3Sc3ccccc32)nc2c1c(=O)n(C)c(=O)n2C | inconclusive [inhibitor, single point] | 
43 | CCCCCNC(=O)C(C1CC1)n1c(=O)c(-c2ccccc2)nc2ccccc21 (centres undefined) | inconclusive [inhibitor, single point] | 
44 | O=S(=O)(c1ccc(F)c(F)c1)N1CCCCCCC1 | inactive | 
